Measurements: paper PMC9911399, “Two distinct binding modes provide the RNA-binding protein RbFox with extraordinary sequence specificity”
Positions count from the first letter of the chain named. The list shows a part of the results.

T1: RBFOX1 RRM RbFoxmut (Fox-RRM*) (Homo sapiens, UniProt Q9NWB1 109-208, R118D;E147R;N151S;E152T)
T1 sequence: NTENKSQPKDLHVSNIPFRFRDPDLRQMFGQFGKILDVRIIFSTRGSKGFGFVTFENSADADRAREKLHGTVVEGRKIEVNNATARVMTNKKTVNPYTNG

B1: AAGUUGC (DNA:RNA)
RNA: GGGAGACCGGAAUUCAGAUUGUCCAAGUUGCUUAAAUCCCGUCGUAGCCACCA
DNA 1: CAATCTGAATTCCGGTCTCCC
DNA 2: TGGTGGCTACGACGGGATT
B2: UCAAAGU (DNA:RNA)
RNA: B1 RNA with A25U, A26C, G27A, U28A, U29A, C31U
DNA 1: CAATCTGAATTCCGGTCTCCC
DNA 2: TGGTGGCTACGACGGGATT
B3: AGGAGUG (DNA:RNA)
RNA: B1 RNA with A26G, U28A, U29G, G30U, C31G
DNA 1: CAATCTGAATTCCGGTCTCCC
DNA 2: TGGTGGCTACGACGGGATT
B4: GAAUUCA (DNA:RNA)
RNA: B1 RNA with A25G, G27A, G30C, C31A
DNA 1: CAATCTGAATTCCGGTCTCCC
DNA 2: TGGTGGCTACGACGGGATT
B5: UGUGUCC (DNA:RNA)
RNA: B1 RNA with A25U, A26G, G27U, U28G, G30C
DNA 1: CAATCTGAATTCCGGTCTCCC
DNA 2: TGGTGGCTACGACGGGATT
B6: AUACUGG (DNA:RNA)
RNA: B1 RNA with A26U, G27A, U28C, C31G
DNA 1: CAATCTGAATTCCGGTCTCCC
DNA 2: TGGTGGCTACGACGGGATT
B7: AUUCUUA (DNA:RNA)
RNA: B1 RNA with A26U, G27U, U28C, G30U, C31A
DNA 1: CAATCTGAATTCCGGTCTCCC
DNA 2: TGGTGGCTACGACGGGATT
B8: CCGAGUC (DNA:RNA)
RNA: B1 RNA with A25C, A26C, U28A, U29G, G30U
DNA 1: CAATCTGAATTCCGGTCTCCC
DNA 2: TGGTGGCTACGACGGGATT
B9: CCUUUAC (DNA:RNA)
RNA: B1 RNA with A25C, A26C, G27U, G30A
DNA 1: CAATCTGAATTCCGGTCTCCC
DNA 2: TGGTGGCTACGACGGGATT
B10: CGGUUUA (DNA:RNA)
RNA: B1 RNA with A25C, A26G, G30U, C31A
DNA 1: CAATCTGAATTCCGGTCTCCC
DNA 2: TGGTGGCTACGACGGGATT
B11: CUACCGA (DNA:RNA)
RNA: B1 RNA with A25C, A26U, G27A, U28C, U29C, C31A
DNA 1: CAATCTGAATTCCGGTCTCCC
DNA 2: TGGTGGCTACGACGGGATT
B12: CGAACUG (DNA:RNA)
RNA: GGGAGACCGGAAUUCAGAUUGUCCCGAACUGUUAAAUCCCGUCGUAGCCACCA
DNA 1: CAATCTGAATTCCGGTCTCCC
DNA 2: TGGTGGCTACGACGGGATT
B13: GCUGAAA (DNA:RNA)
RNA: GGGAGACCGGAAUUCAGAUUGUCCGCUGAAAUUAAAUCCCGUCGUAGCCACCA
DNA 1: CAATCTGAATTCCGGTCTCCC
DNA 2: TGGTGGCTACGACGGGATT
B14: GCUAAAU (DNA:RNA)
RNA: B13 RNA with G28A, A31U
DNA 1: CAATCTGAATTCCGGTCTCCC
DNA 2: TGGTGGCTACGACGGGATT
B15: UAUCAAA (DNA:RNA)
RNA: B13 RNA with G25U, C26A, G28C
DNA 1: CAATCTGAATTCCGGTCTCCC
DNA 2: TGGTGGCTACGACGGGATT
B16: GAACGCC (DNA:RNA)
RNA: B1 RNA with A25G, G27A, U28C, U29G, G30C
DNA 1: CAATCTGAATTCCGGTCTCCC
DNA 2: TGGTGGCTACGACGGGATT
B17: AGUGGCG (DNA:RNA)
RNA: B12 RNA with C25A, A27U, A28G, C29G, U30C
DNA 1: CAATCTGAATTCCGGTCTCCC
DNA 2: TGGTGGCTACGACGGGATT
B18: GGCAUUU (DNA:RNA)
RNA: B12 RNA with C25G, A27C, C29U, G31U
DNA 1: CAATCTGAATTCCGGTCTCCC
DNA 2: TGGTGGCTACGACGGGATT
B19: UCGUCUG (DNA:RNA)
RNA: B12 RNA with C25U, G26C, A27G, A28U
DNA 1: CAATCTGAATTCCGGTCTCCC
DNA 2: TGGTGGCTACGACGGGATT
B20: CGAACUU (DNA:RNA)
RNA: B12 RNA with G31U
DNA 1: CAATCTGAATTCCGGTCTCCC
DNA 2: TGGTGGCTACGACGGGATT
B21: CGACUAU (DNA:RNA)
RNA: B12 RNA with A28C, C29U, U30A, G31U
DNA 1: CAATCTGAATTCCGGTCTCCC
DNA 2: TGGTGGCTACGACGGGATT
B22: ACCCAGG (DNA:RNA)
RNA: B1 RNA with A26C, G27C, U28C, U29A, C31G
DNA 1: CAATCTGAATTCCGGTCTCCC
DNA 2: TGGTGGCTACGACGGGATT
B23: CAGAGUU (DNA:RNA)
RNA: B12 RNA with G26A, A27G, C29G, G31U
DNA 1: CAATCTGAATTCCGGTCTCCC
DNA 2: TGGTGGCTACGACGGGATT
B24: UCCGUAG (DNA:RNA)
RNA: B13 RNA with G25U, U27C, A29U, A31G
DNA 1: CAATCTGAATTCCGGTCTCCC
DNA 2: TGGTGGCTACGACGGGATT
B25: CCCCACA (DNA:RNA)
RNA: B13 RNA with G25C, U27C, G28C, A30C
DNA 1: CAATCTGAATTCCGGTCTCCC
DNA 2: TGGTGGCTACGACGGGATT
B26: GAUGCAG (DNA:RNA)
RNA: B13 RNA with C26A, A29C, A31G
DNA 1: CAATCTGAATTCCGGTCTCCC
DNA 2: TGGTGGCTACGACGGGATT
B27: UCGCCGG (DNA:RNA)
RNA: B1 RNA with A25U, A26C, U28C, U29C, C31G
DNA 1: CAATCTGAATTCCGGTCTCCC
DNA 2: TGGTGGCTACGACGGGATT
B28: GCGAGUG (DNA:RNA)
RNA: B12 RNA with C25G, G26C, A27G, C29G
DNA 1: CAATCTGAATTCCGGTCTCCC
DNA 2: TGGTGGCTACGACGGGATT
B29: UUAGGCC (DNA:RNA)
RNA: B1 RNA with A25U, A26U, G27A, U28G, U29G, G30C
DNA 1: CAATCTGAATTCCGGTCTCCC
DNA 2: TGGTGGCTACGACGGGATT
B30: GCUAUCC (DNA:RNA)
RNA: B13 RNA with G28A, A29U, A30C, A31C
DNA 1: CAATCTGAATTCCGGTCTCCC
DNA 2: TGGTGGCTACGACGGGATT
B31: CGAGUCG (DNA:RNA)
RNA: B12 RNA with A28G, C29U, U30C
DNA 1: CAATCTGAATTCCGGTCTCCC
DNA 2: TGGTGGCTACGACGGGATT

target: T1, RBFOX1 RRM RbFoxmut (Fox-RRM*); test: EMSA; HiTS-Eq, 1 nM pool, 10 min; buffer printed only for the single-RNA assays: 10 mM Tris pH 7.5, 150 mM NaCl, 3.4 mM EDTA, 0.001% NP-40, 30 C; details: tags: His6 N-terminal (pET28a); label: 5' 32P
In short: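 Purified RbFox RRM (wild type or mutant) was equilibrated for 10 min in 50 µL with 1 nM of a 5′-radiolabelled pool of RNA with 7 randomized nucleotides, its flanks annealed to DNA oligonucleotides, across increasing protein concentrations. Free RNA was separated by 8% native PAGE, excised, reverse-transcribed, PCR-barcoded and sequenced on an Illumina HiSeq 2500. Relative association constants came from read-count changes of each variant against the control reaction, normalised to the cognate motif.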

Binder	binding signal
B1	0.123 KA relative to UGCAUGU
B2	0.112 KA relative to UGCAUGU
B3	0.281 KA relative to UGCAUGU
B4	0.0794 KA relative to UGCAUGU
B5	0.148 KA relative to UGCAUGU
B6	0.0862 KA relative to UGCAUGU
B7	0.13 KA relative to UGCAUGU
B8	0.108 KA relative to UGCAUGU
B9	0.125 KA relative to UGCAUGU
B10	0.0919 KA relative to UGCAUGU
B11	0.0748 KA relative to UGCAUGU
B12	0.0687 KA relative to UGCAUGU
B13	0.0635 KA relative to UGCAUGU
B14	0.0892 KA relative to UGCAUGU
B15	0.0378 KA relative to UGCAUGU
B16	0.0859 KA relative to UGCAUGU

Binder	binding signal
B17	0.161 KA relative to UGCAUGU
B18	0.0782 KA relative to UGCAUGU
B19	0.151 KA relative to UGCAUGU
B20	0.0774 KA relative to UGCAUGU
B21	0.0706 KA relative to UGCAUGU
B22	0.102 KA relative to UGCAUGU
B23	0.103 KA relative to UGCAUGU
B24	0.102 KA relative to UGCAUGU
B25	0.109 KA relative to UGCAUGU
B26	0.109 KA relative to UGCAUGU
B27	0.0822 KA relative to UGCAUGU
B28	0.184 KA relative to UGCAUGU
B29	0.208 KA relative to UGCAUGU
B30	0.0945 KA relative to UGCAUGU
B31	0.105 KA relative to UGCAUGU
